Assay results: PubChem BioAssay (NCATS)
Results filed as inconclusive are left out. The call rests on the fitted dose curve. Some entries of the source have several records that differ or are many. The other results are left out here. There may be further records. Results that share an entry are repeated measurements across runs, samples, wells, individuals or studies. Counts like (3×) give the number of equal values in this list.

Target: Cytochrome P450 1A2 (Homo sapiens) (UniProt P05177)
Assay: p450-cyp1a2 (AID 410)
Conditions: recombinant CYP1A2, luciferin-ME demethylation, luminescence
Summary of the method: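 Inhibition was calculated relative to 57 uM furafylline (full inhibition). The reaction used human CYP1A2 at 20nM with Luciferin-ME at its Km, 100uM, driven by an NADPH-regenerating system for 60 min at room temperature.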
Potency means the concentration at half of the fitted maximal effect.

Chain of UniProt P05177 (P05177 whole entry, looked up): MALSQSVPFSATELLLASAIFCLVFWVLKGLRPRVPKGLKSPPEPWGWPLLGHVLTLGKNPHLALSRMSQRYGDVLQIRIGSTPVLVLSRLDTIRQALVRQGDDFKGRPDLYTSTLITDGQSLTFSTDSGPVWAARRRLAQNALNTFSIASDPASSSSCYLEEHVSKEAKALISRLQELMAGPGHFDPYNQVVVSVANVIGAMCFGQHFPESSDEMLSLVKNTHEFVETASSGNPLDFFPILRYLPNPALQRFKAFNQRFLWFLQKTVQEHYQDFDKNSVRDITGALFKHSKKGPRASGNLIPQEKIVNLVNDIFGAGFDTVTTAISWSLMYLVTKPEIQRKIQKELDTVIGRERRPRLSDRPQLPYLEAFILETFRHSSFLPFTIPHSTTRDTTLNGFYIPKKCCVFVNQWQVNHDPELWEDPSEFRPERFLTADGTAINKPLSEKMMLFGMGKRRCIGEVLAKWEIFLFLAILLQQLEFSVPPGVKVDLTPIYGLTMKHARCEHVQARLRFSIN

Question: For `CC(C)NC[C@@H](O)COc1cccc2ccccc12`, which Potency is on record?
Answer: active: 1.58 µM, 1.26 µM, 251 nM, 631 nM, 200 nM (2×), 158 nM [separate samples]
